Reference: PubChem BioAssay (Tox21)
The source made the active and inactive calls. Unless noted, calls come from the whole dose curve; as a rule, active = well fitted activation curve with a large enough effect in the repeat runs; inconclusive = weak or mixed curves, or effect the other way; inactive = no such curve, though single readings can be large or run the other way. Bridge positions count the residues as written; N and C are the ends. Square brackets hold non-standard residues; d marks the D form. Peptide text beside a SMILES is read from it. Orn = NCCC[C@H](N)C(=O)O; Mpa = O=C(O)CCS

molecular target: Estrogen receptor (Homo sapiens) (UniProt P03372); assay: qHTS assay to identify small molecule agonists of the estrogen receptor alpha (ER-alpha) signaling pathway (AID 743075; calls by dose curve;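 note: HEK293 GripTite cells with ER-alpha and UAS-driven beta-lactamase reporter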); conditions: HEK293 ER-alpha-UAS-bla, beta-lactamase FRET ratio, 18 h; activation: at 70.1 µM (top of the series)
Potency is the fitted concentration of half-maximal effect; tags give direction and shape of the fitted curve or compound fluorescence and quenching.

Sequence of UniProt P03372 (P03372 whole entry, looked up): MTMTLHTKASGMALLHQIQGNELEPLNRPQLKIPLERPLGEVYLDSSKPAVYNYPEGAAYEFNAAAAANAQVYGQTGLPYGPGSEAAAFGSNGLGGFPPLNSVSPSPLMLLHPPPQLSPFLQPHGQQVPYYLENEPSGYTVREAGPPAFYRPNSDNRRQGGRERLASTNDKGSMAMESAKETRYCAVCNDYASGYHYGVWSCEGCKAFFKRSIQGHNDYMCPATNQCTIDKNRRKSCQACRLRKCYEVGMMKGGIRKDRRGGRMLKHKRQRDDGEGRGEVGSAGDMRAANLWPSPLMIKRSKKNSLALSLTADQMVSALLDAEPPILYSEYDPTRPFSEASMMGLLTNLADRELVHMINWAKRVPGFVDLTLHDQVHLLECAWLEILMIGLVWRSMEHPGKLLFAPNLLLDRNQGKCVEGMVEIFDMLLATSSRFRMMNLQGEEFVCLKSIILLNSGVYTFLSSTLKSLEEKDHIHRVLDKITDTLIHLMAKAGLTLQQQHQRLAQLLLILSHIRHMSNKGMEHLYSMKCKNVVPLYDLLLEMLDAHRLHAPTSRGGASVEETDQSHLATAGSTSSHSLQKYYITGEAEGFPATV

Row | Structure (SMILES) | Potency
1 | CCC(Cc1c(I)cc(I)c(O)c1I)C(=O)O (stereo not given) | inconclusive [activator]
2 | CC#CCC(C)[C@H](O)/C=C/[C@@H]1[C@H]2c3cccc(CCCC(=O)O)c3O[C@H]2C[C@H]1O (stereo not given in full) | inconclusive [fluorescent, partial curve]
3 | O=C(O)CCC/C=C\C[C@@H]1[C@@H](/C=C/[C@@H](O)COc2cccc(C(F)(F)F)c2)[C@H](O)C[C@@H]1O | inconclusive [activator]
4 | CCCCC(=O)O[C@H]1CC[C@H]2[C@@H]3CCc4cc(O)ccc4[C@H]3CC[C@]12C | active: 0.0006 µM [inconclusive]

molecular target: Estrogen receptor (Homo sapiens) (UniProt P03372); assay: qHTS assay to identify small molecule agonists of the estrogen receptor alpha (ER-alpha) signaling pathway using the BG1 cell line (AID 743079); conditions: BG1Luc4E2 cells, ERE-luciferase agonist, 22 h; activation: at 70.3 µM (top of the series) unless noted; note: nearly all actives have a fitted effect of over 20% in size; for activation: % is set by controls: 0 for no effect and ±100 for the full control effect

Row | Structure (SMILES) | activation | Potency
5 | CCC(Cc1c(I)cc(I)c(O)c1I)C(=O)O (stereo not given) | inconclusive: 13.8% [phenotype inactive] | 
6 | CC#CCC(C)[C@H](O)/C=C/[C@@H]1[C@H]2c3cccc(CCCC(=O)O)c3O[C@H]2C[C@H]1O (stereo not given in full) |  | active: 26.6 µM
7 | COc1cc(NCCCC(C)N)c2ncccc2c1 (stereo not given) |  | inconclusive [inhibitor, partial curve]
8 | CC(=O)NC[C@H]1CN(c2ccc(N3CCOCC3)c(F)c2)C(=O)O1 |  | active: 13.3 µM
9 | CCOc1ccc(C[C@H]2NC(=O)CCSSC[C@@H](C(=O)N3CCC[C@H]3C(=O)N[C@@H](CCCN)C(=O)NCC(N)=O)NC(=O)[C@H](CC(N)=O)NC(=O)[C@H]([C@@H](C)O)NC(=O)[C@H]([C@@H](C)CC)NC2=O)cc1 ([Mpa][dY](Et)ITNCP[Orn]G-NH2; disulfide 1-6) | inactive: -6.42% | 
10 | O=C(CO)[C@@H](O)[C@H](O)[C@@H](O)C(=O)O | inactive: 4.41% | 
